This note sets out measurements from the supplement of paper PMC3334620.

Whole data set: some 33,000 sequences, median “E-score (-0.5 to 0.5)” near -0.056, cut for the highest 2% near 0.38. This is one part of the list.

The target in the experiment is Stb4 (UniProt P50104). Nature of the experiment: PBM E-score (8-mer binding enrichment) (E-score (-0.5 to 0.5)); higher = stronger / more preferred TF binding; most listed sequences are background and not binding sites. The conditions noted are these: protein concentration: 200 nM; construct: GST-DNA-binding domain. An outline of the steps: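 Full-length yeast transcription factors or their DNA-binding domains, GST-tagged and expressed with PURExpress, were applied at about 100-200 nM to universal all-10-mer Agilent arrays. These arrays had been made double-stranded by primer extension on fresh or once-stripped slides. Detection used fluorescent anti-GST, normalisation used masliner, and E-scores for ungapped eight-base words pooled with reverse complements came from the Universal PBM Analysis Suite.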
Consider ACACCATG, for which the “PBM E-score” value was -0.303.
Then AGCAGGGA, with -0.286.
With AAAACCGA, the “PBM E-score” value amounted to 0.303.
As for TCATGACA, the “PBM E-score” value was -0.0776.
GAACGACC: the “PBM E-score” value is -0.204.
The value for CCTGAAGA was -0.177; that for ATTAATCA was -0.15; that for TCCCGTCA was 0.185.
Then AATCGAGG, with -0.0911.
Consider AATGTCTG, for which the “PBM E-score” value is 0.0612.
For CGCGATGA, the “PBM E-score” value was -0.121.
Then CTCCACAG, with -0.222; and CAATGTAA, with 0.112; and AATAGAGT, with -0.184.
The value for CAAGTGAG was -0.259; that for TAAAACGA was -0.215.
Then ACAACCAG, with -0.0185; and ATGTACCC, with 0.121.
Regarding ATGGCAAA, the “PBM E-score” value was -0.0662.
Then AACATGAG, with -0.00858; and CTACACGA, with -0.0779.
Then AAACATCC, with 0.38; and CGCATGAA, with -0.0756.
For AGAAGAAC, the “PBM E-score” value is -0.0371.
The value for AATGTATC was 0.0613.
AGGCACAT: the “PBM E-score” value is -0.0897.
The value for CACACACA was -0.176.
The value for CAGCAGAA was -0.00769; that for GCGTCGAA was -0.0895; that for CCTGCGAA was -0.17.
The value for CCCATCCC was 0.0483; that for CTAACTAG was -0.0131; that for TGTGGTAA was -0.0792.
For AGTCACAT, the “PBM E-score” value was -0.106.
In the case of CGTTAAGA, the “PBM E-score” value is -0.196.
For the sequence CTCACAAC, the “PBM E-score” value amounted to 0.0516.
The value for TAATCGGA was 0.324; that for ATCCTCGA was -0.25; that for AACCGGAC was 0.192.
As for ACGGAAAA, the “PBM E-score” value came to 0.325.
Then CGCGAGAG, with -0.0296.
The value for ATGGTCAC was 0.0213; that for ATGTAGCG was -0.189.
For AGGCAGTG, the “PBM E-score” value is -0.193.
In the case of ACCTCTCG, the “PBM E-score” value was 0.027.
The value for ATAGAGGA was -0.128; that for GAGATCCC was 0.0839; that for ACCGGCCA was 0.119.
For the sequence AGGCCGCC, the “PBM E-score” value is -0.142.
Then GAGATAAA, with 0.0723; and ACCTCAGA, with -0.0978; and AATGGATC, with 0.08.
Then TGCTTCAA, with -0.0517; and ACATTCCA, with -0.218; and ATCCCAGA, with -0.098.
The value for CCACAGAG was -0.197; that for CCAAAACA was -0.236.
For TCTATGAA, the “PBM E-score” value is -0.218.
The value for GGCTGCAA was 0.0959.
The value for ACCTGCCA was -0.00358.
Consider AATGGAAG, for which the “PBM E-score” value is -0.0876.
Consider CTGCCGAA, for which the “PBM E-score” value is 0.411.
Then ACTGGCGA, with -0.254.
Then CACTACCC, with 0.0794; and ACGACATC, with -0.0399; and ACACCGAG, with 0.298.
The value for CCTGGAAG was -0.298; that for CAGGATCG was 0.0947; that for CCCGGAAA was 0.39.
With ACTAGCGC, the “PBM E-score” value is -0.189.
Then AAAGAGAG, with -0.188; and CAATTTCG, with 0.0914.
In the case of ACTAATCA, the “PBM E-score” value was found to be 0.0094.
Then TCATATCA, with -0.0336; and CCATCCAC, with -0.0741; and CCGCAACG, with 0.114.
In the case of ATTATCAA, the “PBM E-score” value is -0.175.
The value for AACTGATC was -0.0701; that for ATAGGGTG was -0.151; that for GTTGGATA was -0.0408.
The value for CATAAGGA was -0.227.
Then AGTCATCC, with 0.192.
GCGCGTAC: the “PBM E-score” value came out at 0.139.
Then CAGCCCGG, with 0.333; and ACTCTTGG, with -0.203.
The value for CTCCGACA was 0.227.
